Test results as given in article PMC7819943, “Rice protein-binding microarrays: a tool to detect cis-acting elements near promoter regions in rice”.
The list shows a part of the results.

The sequences below were run against T1, OsWOX13 (Oryza sativa, UniProt Q5QMM3 1-267) (assay: protein-binding microarray (RPBM); PBS, 2% BSA, 51.3 ng/ul salmon testes DNA, 50 uM zinc acetate, 200 nM TF, 25 C, 1 h; high values mean tight binding). Conditions: protein: recombinant; tags: N-terminal polyhistidine and DsRed monomer fusion (pET32a); label: CyDye5-dUTP incorporated in the synthesized complementary strand; 3' TTTTT single-stranded linker to array surface; dsDNA, one strand shown.
T1 sequence: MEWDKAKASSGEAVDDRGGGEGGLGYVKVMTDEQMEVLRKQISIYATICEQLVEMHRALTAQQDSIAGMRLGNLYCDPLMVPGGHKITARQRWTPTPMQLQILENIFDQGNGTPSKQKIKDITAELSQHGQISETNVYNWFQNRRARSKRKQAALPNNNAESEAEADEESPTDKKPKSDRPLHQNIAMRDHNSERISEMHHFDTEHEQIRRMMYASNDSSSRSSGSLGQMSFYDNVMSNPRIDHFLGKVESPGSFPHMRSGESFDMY
Procedure, shortened: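 The binding signal for each feature is its fluorescence intensity in arbitrary units. An Axon 4000B scanner was used to read a custom Agilent array that had been made double-stranded with Cy5-dUTP primer extension, blocked with 2% BSA, incubated at 25 °C for 1 h with 200 nM protein in PBS, 2% BSA, salmon testes DNA and 50 µM zinc acetate, and washed. The protein was an N-terminal polyhistidine–DsRed transcription factor fusion from E. coli BL21-CodonPlus, purified on Ni–NTA.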

Sequence	binding signal
TTTAATTTCGAATTCCTACTTGAATTCTTCTTTATTTTCTCGGAGTCACCTAGTGCAG	4070 fluorescence intensity (a.u.)
AACTTGATTAAAAGGAATGTTGAGATAATGTGTTAGAGATCGGAGTCACCTAGTGCAG	12800 fluorescence intensity (a.u.)
CTAGACTGATAAATTATAGCGTAAAAGTTCTCGTACCGTTCGGAGTCACCTAGTGCAG	29800 fluorescence intensity (a.u.)
TCTAATTTATACTTGATTTATTAGACACATTTTCCAAACACGGAGTCACCTAGTGCAG	25700 fluorescence intensity (a.u.)
CATGGTAATTTTGCACCATTAATCTATGTACTAGTAGTAGCGGAGTCACCTAGTGCAG	5780 fluorescence intensity (a.u.)
AATTGCCAAATTAAGTGAGGTTAATTAAGCACTGATGTCTCGGAGTCACCTAGTGCAG	8620 fluorescence intensity (a.u.)
ACATATTATTGACGTATAACCACATAAATAAATCCAAAGTCGGAGTCACCTAGTGCAG	7400 fluorescence intensity (a.u.)
TTTTACTATAATGAATAATTTAGACAGAGGTATATTCAGACGGAGTCACCTAGTGCAG	5390 fluorescence intensity (a.u.)
CACATACCTGATTTGATTGGTCCTAAAAGAGGATGCTAGACGGAGTCACCTAGTGCAG	31700 fluorescence intensity (a.u.)
CTTCTATCATCAACGACAAATCTCCCGTTGTCTTGTCTTCCGGAGTCACCTAGTGCAG	4060 fluorescence intensity (a.u.)
GTGTATCAATCATATGCCCTTTAATTTGAATTTAGAGATTCGGAGTCACCTAGTGCAG	21300 fluorescence intensity (a.u.)
AGTAGCTAATCTATAAATCAATTCGTAGTTAAACAAAGAGCGGAGTCACCTAGTGCAG	13100 fluorescence intensity (a.u.)
CCTTGATATGTTGGATTAGAGGAGAGACATGTTCGCTAGACGGAGTCACCTAGTGCAG	9730 fluorescence intensity (a.u.)
CCTGAAATTATAAATTATAAGATTACGTGATGACAAATAACGGAGTCACCTAGTGCAG	8250 fluorescence intensity (a.u.)
TAAAATCACGTTTTAAACGTAGCCACTTGTCCATTTTCCCCGGAGTCACCTAGTGCAG	4480 fluorescence intensity (a.u.)
TGCCAATCCACGCGCTTAATTAGCTTAATGCATTAAAGCACGGAGTCACCTAGTGCAG	19300 fluorescence intensity (a.u.)
GCTCTTAAATTTTAAGATGATTAATTTAGGTCTGGCCCGTCGGAGTCACCTAGTGCAG	22100 fluorescence intensity (a.u.)
ATTGCACAATTAAATTGATCACCTCAGTGACAGCCTTGTTCGGAGTCACCTAGTGCAG	22600 fluorescence intensity (a.u.)
ACACGTGATTTCTCACCGCTCGACGCTCGTCCTCTCCCCTCGGAGTCACCTAGTGCAG	6690 fluorescence intensity (a.u.)
TAATTAATTGAGTCATGCACATGTCTCTTTAATTTGGCTTCGGAGTCACCTAGTGCAG	45700 fluorescence intensity (a.u.)
AAAATATATGAAATTTTAATTATATTATTAAGCTACTACTCGGAGTCACCTAGTGCAG	5270 fluorescence intensity (a.u.)
ATTCATATAATTTGTATCACCTCAATAATAATTGGTATCACGGAGTCACCTAGTGCAG	14700 fluorescence intensity (a.u.)
ACAATCAAAGAAGCTGTTAACTTCCATCAAAACTTTGATTCGGAGTCACCTAGTGCAG	4200 fluorescence intensity (a.u.)
TTGAAATTGAAACGATGTGACAGAAAAGTTAGAAGTTTGTCGGAGTCACCTAGTGCAG	24000 fluorescence intensity (a.u.)
AAGTTGTTAGTCAAGGTGATTAGGTTGGATGATTTGACCTCGGAGTCACCTAGTGCAG	14200 fluorescence intensity (a.u.)
GGAGTTAAATTATACTCCCTCCTTCCGTTTGACACTGTTGCGGAGTCACCTAGTGCAG	5020 fluorescence intensity (a.u.)
GTAACTGAAATTTATATGTCATTCATTGCTCTTAGCTTTTCGGAGTCACCTAGTGCAG	6110 fluorescence intensity (a.u.)

Sequence	binding signal
AAATGATTAGGTGAACTTTCAAGAATATATAGGGAATTTTCGGAGTCACCTAGTGCAG	6990 fluorescence intensity (a.u.)
CTTGATGATACGTGAAACTTAAAACTTGATACATGCCGGACGGAGTCACCTAGTGCAG	3580 fluorescence intensity (a.u.)
GTATAGATAAAATTGATATAGATGGTAAAAGTTTGAAAGTCGGAGTCACCTAGTGCAG	7440 fluorescence intensity (a.u.)
GAAATCAATGAAGCAGCTAATTTGCTGCTACTCATTATTTCGGAGTCACCTAGTGCAG	3790 fluorescence intensity (a.u.)
AGGAATAACCAATCAATCGTTAAAATTCAGGCTGTGAAAACGGAGTCACCTAGTGCAG	7020 fluorescence intensity (a.u.)
TGTGATTACTGCAAGCATTTGCAATAGGAATTCAGATATACGGAGTCACCTAGTGCAG	14300 fluorescence intensity (a.u.)
TGCTGAATTACTCATTTAGGTCTAGACGAAATACACATTGCGGAGTCACCTAGTGCAG	4700 fluorescence intensity (a.u.)
TTGGTTAAGGTCTAACGGGTCAATCAACAACCGTGTCTTCCGGAGTCACCTAGTGCAG	3480 fluorescence intensity (a.u.)
TAAACAAAATGTAATTTATGTTTGTTAATATAGTACTCTCCGGAGTCACCTAGTGCAG	14000 fluorescence intensity (a.u.)
CAAAATTTGCCTAAACTTATCCCGCGGTCGCTCGTCCCTACGGAGTCACCTAGTGCAG	7400 fluorescence intensity (a.u.)
AGATAACTGAAGGTGAGCAACTAGTACTCTGTATTGTCCTCGGAGTCACCTAGTGCAG	9320 fluorescence intensity (a.u.)
TTCGGTTTTATTTTAATTGACATTTTGGACAATGATACGGCGGAGTCACCTAGTGCAG	27900 fluorescence intensity (a.u.)
AGAAAATTATTTTATAAATTATTTATAATCAAATATTTTACGGAGTCACCTAGTGCAG	11000 fluorescence intensity (a.u.)
GGCCCACTGATTGCTTGCTTTCAAATGTCTAGTGGAGCAACGGAGTCACCTAGTGCAG	18400 fluorescence intensity (a.u.)
CTAGGATAGACGAGGAACGTGGGCTCAACCTGCTATCTGGCGGAGTCACCTAGTGCAG	3670 fluorescence intensity (a.u.)
CCATGTGATTGACGATGCTCTTATTAACTTCTAACTTGACCGGAGTCACCTAGTGCAG	47000 fluorescence intensity (a.u.)
TTCTCTAATTTCTTATCCTGATCAGATTTATAGTGAGATTCGGAGTCACCTAGTGCAG	9000 fluorescence intensity (a.u.)
ACGCGGCTTTGATTGCTCGCGCTTATCCCGGTGGACGTCGCGGAGTCACCTAGTGCAG	11200 fluorescence intensity (a.u.)
GACATATTGTCACCGGTTTTGATTAGTTGTGGATATCTGGCGGAGTCACCTAGTGCAG	6960 fluorescence intensity (a.u.)
CCTTATAATTAATTTATAAATTATATAATTAAAATTAAAACGGAGTCACCTAGTGCAG	13700 fluorescence intensity (a.u.)
TCTCGACCAATCACAGCGCGTCAGCTGCGTCACCCGAGTCCGGAGTCACCTAGTGCAG	9600 fluorescence intensity (a.u.)
TTTGACAGAGAGAGTATACTAGATGGTACGTGTTGTCAGGCGGAGTCACCTAGTGCAG	21200 fluorescence intensity (a.u.)
CACCGACAATCATTGAGACACGCACATGCAGCTACCGCTGCGGAGTCACCTAGTGCAG	6010 fluorescence intensity (a.u.)
GATAATGGAAGATCACAAAATTCGAGAGGAAATCCATGATCGGAGTCACCTAGTGCAG	6940 fluorescence intensity (a.u.)
ACCAGATTGACCTTGTAGTGCTTTGCCTGAAGAGCAGTGACGGAGTCACCTAGTGCAG	8270 fluorescence intensity (a.u.)
CTACAAATTAATAATTATTCTCTAATAAGCTGTTTTGACTCGGAGTCACCTAGTGCAG	25100 fluorescence intensity (a.u.)
GGTCTCCAATTAAGTGTGAGTCAATTTCTAGCGATGATATCGGAGTCACCTAGTGCAG	16700 fluorescence intensity (a.u.)
